{
  "source": "PubChem BioAssay AID504333",
  "about": "(National Center for Advancing Translational Sciences (NCATS), 2011)",
  "note": "In all, about 360,000 compounds went through this assay and about 16,000 (4.4%) were called active. Inconclusive means that the source gave no clear call. Such entries were picked first, then a sample of the others. The call rests on the fitted dose curve; in most records, active means well fitted inhibition curve with a large enough effect; inconclusive means small, poorly fitted or top-dose-only effect; inactive means no such curve, though single readings can be large or run the other way. Potencies beside an inconclusive call are fits to weak or partial responses and may not hold up. On the % scale 0 is the no-effect control and ±100 the full control effect; potency means the concentration at half of the fitted maximal effect; tags describe the fitted curve by direction and shape.",
  "data": [
    {"target": "Bromodomain adjacent to zinc finger domain protein 2B (Homo sapiens) (UniProt Q9UIF8)", "sequence (Q9UIF8 whole entry, looked up, the tested form may be a part)": "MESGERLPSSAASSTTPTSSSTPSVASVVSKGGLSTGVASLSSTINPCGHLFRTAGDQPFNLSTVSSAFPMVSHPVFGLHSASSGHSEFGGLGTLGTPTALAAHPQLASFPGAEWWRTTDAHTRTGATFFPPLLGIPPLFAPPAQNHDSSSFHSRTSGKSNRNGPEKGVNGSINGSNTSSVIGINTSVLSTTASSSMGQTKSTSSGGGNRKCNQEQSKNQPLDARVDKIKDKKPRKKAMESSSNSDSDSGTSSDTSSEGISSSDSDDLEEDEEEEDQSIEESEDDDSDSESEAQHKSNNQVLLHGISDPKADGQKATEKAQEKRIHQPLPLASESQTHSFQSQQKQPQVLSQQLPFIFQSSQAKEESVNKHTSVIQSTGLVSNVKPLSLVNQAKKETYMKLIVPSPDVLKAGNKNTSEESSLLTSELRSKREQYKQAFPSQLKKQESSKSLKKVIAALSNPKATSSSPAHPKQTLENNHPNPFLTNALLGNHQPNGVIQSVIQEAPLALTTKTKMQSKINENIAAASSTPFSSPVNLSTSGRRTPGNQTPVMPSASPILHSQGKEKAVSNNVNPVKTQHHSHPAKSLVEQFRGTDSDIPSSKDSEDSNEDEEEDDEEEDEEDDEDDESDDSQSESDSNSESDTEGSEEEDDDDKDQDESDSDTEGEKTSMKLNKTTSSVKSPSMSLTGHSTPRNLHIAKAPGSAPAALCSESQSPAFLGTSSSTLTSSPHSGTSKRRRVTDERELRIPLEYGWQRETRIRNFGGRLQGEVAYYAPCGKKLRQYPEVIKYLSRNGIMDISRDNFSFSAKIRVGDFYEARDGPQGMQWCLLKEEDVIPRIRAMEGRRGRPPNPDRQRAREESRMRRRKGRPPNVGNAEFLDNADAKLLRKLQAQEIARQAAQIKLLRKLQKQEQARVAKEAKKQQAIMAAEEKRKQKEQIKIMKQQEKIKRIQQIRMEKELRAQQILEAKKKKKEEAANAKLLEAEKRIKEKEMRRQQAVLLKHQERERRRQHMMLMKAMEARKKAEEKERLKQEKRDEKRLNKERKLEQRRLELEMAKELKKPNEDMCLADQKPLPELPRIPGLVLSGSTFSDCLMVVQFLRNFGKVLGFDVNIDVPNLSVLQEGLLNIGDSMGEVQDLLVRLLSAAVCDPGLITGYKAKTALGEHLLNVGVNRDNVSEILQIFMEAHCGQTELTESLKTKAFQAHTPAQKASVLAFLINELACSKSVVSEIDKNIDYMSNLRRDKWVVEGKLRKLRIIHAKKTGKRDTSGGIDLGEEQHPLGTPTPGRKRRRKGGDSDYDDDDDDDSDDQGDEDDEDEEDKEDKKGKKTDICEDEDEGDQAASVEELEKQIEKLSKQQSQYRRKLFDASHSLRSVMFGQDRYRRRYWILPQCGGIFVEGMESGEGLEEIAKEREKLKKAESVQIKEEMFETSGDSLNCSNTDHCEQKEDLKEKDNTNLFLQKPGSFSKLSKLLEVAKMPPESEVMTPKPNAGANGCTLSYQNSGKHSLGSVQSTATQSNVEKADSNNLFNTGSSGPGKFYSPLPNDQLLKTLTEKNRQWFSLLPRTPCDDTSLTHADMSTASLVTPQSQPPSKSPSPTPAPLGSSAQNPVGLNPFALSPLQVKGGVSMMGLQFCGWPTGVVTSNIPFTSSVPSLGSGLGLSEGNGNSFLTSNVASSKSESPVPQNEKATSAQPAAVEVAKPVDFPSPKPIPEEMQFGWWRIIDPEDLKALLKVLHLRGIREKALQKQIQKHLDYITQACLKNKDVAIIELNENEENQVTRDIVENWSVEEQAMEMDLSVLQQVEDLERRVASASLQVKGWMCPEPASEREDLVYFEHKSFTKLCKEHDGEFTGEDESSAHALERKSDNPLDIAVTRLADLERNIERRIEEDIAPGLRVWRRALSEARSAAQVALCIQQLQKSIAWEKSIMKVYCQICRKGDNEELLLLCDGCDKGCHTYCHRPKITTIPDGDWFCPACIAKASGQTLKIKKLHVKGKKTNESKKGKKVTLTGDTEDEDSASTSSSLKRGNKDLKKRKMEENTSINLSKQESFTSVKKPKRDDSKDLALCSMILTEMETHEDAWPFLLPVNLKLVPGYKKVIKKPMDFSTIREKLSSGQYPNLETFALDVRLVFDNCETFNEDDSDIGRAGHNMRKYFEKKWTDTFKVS", "test": "qHTS Assay for Inhibitors of BAZ2B; further: nearly all actives have a fitted effect of over 60% in size", "conditions": "AlphaScreen BAZ2B-H3K14Ac peptide displacement; activity change, negative = inhibition: at 114 µM (top of the series)", "how_it_was_run": "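AlphaScreen luminescence quantifies BAZ2B engagement of H3K14Ac peptide; the protein and biotinylated peptide are both at 50 nM final, buffer PBS pH 7.4 with 0.01% Tween-20, all steps at room temperature.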", "values": [
      {"smiles": "CC(=O)c1ccc(Cc2ccc(C(C)=O)cc2)cc1", "activity change, negative = inhibition": "inactive: 22.4%"},
      {"smiles": "O=C(/C=C/c1ccccc1)NC(NC(=S)Nc1ccc(C(=O)O)cc1)C(Cl)(Cl)Cl", "note": "(stereo not given)", "Potency": "inconclusive: 79.4 µM [inhibitor, single point]"},
      {"smiles": "Clc1cc(Br)ccc1OCCOCCN1CCCC1", "Potency": "inconclusive: 89.1 µM [inhibitor, single point]"},
      {"smiles": "CCc1cccc(C)c1NC(=O)CSc1nnc(CCCOc2ccc(Cl)cc2Cl)n1C", "activity change, negative = inhibition": "inactive: -5.89%"},
      {"smiles": "CC1(C)Cc2sc3c(=O)[nH]c(=S)[nH]c3c2CO1", "Potency": "inconclusive: 89.1 µM [inhibitor, single point]"},
      {"smiles": "O=C(NCCCN1CCCCCC1)c1ccc2c(c1)NC(=O)C(N1CCOCC1)S2", "note": "(stereo not given)", "Potency": "inconclusive: 79.4 µM [inhibitor, partial curve]"},
      {"smiles": "O=C(NCC(c1ccc(F)cc1)N1CCOCC1)c1ccc(Br)o1", "note": "(stereo not given)", "Potency": "inconclusive: 100 µM [inhibitor, single point]"},
      {"smiles": "C=CCc1ccccc1OCCSc1nc2ccc([N+](=O)[O-])cc2s1", "activity change, negative = inhibition": "inactive: -37.6%"},
      {"smiles": "O=C(COc1ccccc1C(=O)NCc1ccccc1)Nc1ccccc1", "activity change, negative = inhibition": "inactive: -5.85%"},
      {"smiles": "COc1ccc(OCCN2CCN(C(=O)c3ccc(OC)c(OC)c3)CC2)cc1", "activity change, negative = inhibition": "inactive: -2.84%"},
      {"smiles": "Cc1ccc(NC(=O)c2ccc3c(O)c(S(=O)(=O)c4ccccc4)c(=O)[nH]c3c2)cc1Cl", "Potency": "inconclusive: 79.4 µM [inhibitor, single point]"},
      {"smiles": "COCCNC(=O)/C(C#N)=C/C=C/c1ccccc1[N+](=O)[O-]", "activity change, negative = inhibition": "inactive: -25.8%"},
      {"smiles": "Cc1ccc(-c2nnc(Nc3ccc(C(=O)N(C)C)cc3)c3ccccc23)cc1S(=O)(=O)N(C)C", "activity change, negative = inhibition": "inactive: -0.106%"},
      {"smiles": "COCCNCCOc1ccc(C)cc1[N+](=O)[O-]", "Potency": "inconclusive: 89.1 µM [inhibitor, single point]"},
      {"smiles": "CCCCC(=O)OCc1c(-c2ccccc2)ncc2ccccc12", "activity change, negative = inhibition": "inactive: 29.2%"},
      {"smiles": "C[C@H](NC(=O)c1nc[nH]c1C(=O)NCC(=O)OC(C)(C)C)C(=O)OC(C)(C)C", "Potency": "inconclusive: 89.1 µM [inhibitor, single point]"},
      {"smiles": "COc1ccccc1CNC(=O)CCn1c(=O)c2cccn2c2cccnc21", "Potency": "inconclusive: 89.1 µM [inhibitor, single point]"},
      {"smiles": "CN(C)CC(=O)Nc1nc(-c2ccccc2)cs1", "activity change, negative = inhibition": "inactive: -0.234%"},
      {"smiles": "O=C1C(=O)N(Cc2ccccc2)C(c2cccc(O)c2)/C1=C(\\O)c1ccc2c(c1)OCCO2", "note": "(stereo not given)", "Potency": "active: 56.2 µM"},
      {"smiles": "N#C/C(=C\\Nc1ccc2c(c1)OCCO2)c1nc2ccccc2[nH]1", "Potency": "inconclusive: 44.7 µM [inhibitor, partial curve]"},
      {"smiles": "O=C(Nc1ccc(Br)cn1)c1ccc([N+](=O)[O-])cc1Cl", "Potency": "inconclusive: 28.2 µM [inhibitor, partial curve]"},
      {"smiles": "O=[N+]([O-])c1cc(-c2nc(-c3ccccc3)no2)ccc1NC1CCCCC1", "Potency": "inconclusive: 28.2 µM [inhibitor, full curve, poor fit]"},
      {"smiles": "O=c1nc2c(O)cccn2c2c1c(=O)[nH]c1ccccc12", "Potency": "inconclusive: 89.1 µM [inhibitor, single point]"},
      {"smiles": "O=C(CCCN1C(=O)S/C(=C/C=C/c2ccccc2)C1=O)Nc1ccc(C(=O)O)cc1", "activity change, negative = inhibition": "inactive: -2.89%"},
      {"smiles": "Cc1cc(=O)[nH]c(SCC(=O)Nc2nc(-c3ccccc3)c(-c3ccccc3)o2)n1", "Potency": "inconclusive: 89.1 µM [inhibitor, single point]"},
      {"smiles": "O=C1CCC(C(=O)N2CCCC(C(=O)c3ccc4ccccc4c3)C2)=NN1", "note": "(stereo not given)", "activity change, negative = inhibition": "inactive: -16.5%"},
      {"smiles": "COc1ccc(/C=C2\\CCCC3C2=NC(=S)NC3c2ccc(OC)cc2)cc1", "note": "(stereo not given)", "Potency": "inconclusive: 35.5 µM [inhibitor, partial curve]"},
      {"smiles": "COc1cc(O)cc2cc3c(c(O)c12)C(=O)CC(C)(O)O3", "note": "(stereo not given)", "Potency": "inconclusive: 89.1 µM [inhibitor, single point]"},
      {"smiles": "COc1ccc(S(=O)(=O)NCC(c2ccc(N(C)C)cc2)N2CCc3ccccc32)cc1F", "note": "(stereo not given)", "Potency": "active: 11.2 µM"},
      {"smiles": "Cc1ccccc1OCCC(=O)OCC(=O)NC1CCS(=O)(=O)C1", "note": "(stereo not given)", "activity change, negative = inhibition": "inactive: -2.67%"},
      {"smiles": "Cc1cc(C)n2nc(CNS(=O)(=O)c3ccccc3)nc2n1", "activity change, negative = inhibition": "inactive: 5.35%"},
      {"smiles": "CC1CCc2c(c3ccccc3n2C(=O)CCl)C1", "note": "(stereo not given)", "Potency": "active: 79.4 µM"},
      {"smiles": "Cc1nc(S/C(=C\\c2ccc(-c3ccc(C(=O)O)c(Cl)c3)o2)C(=O)O)n[nH]1", "Potency": "active: 14.1 µM"},
      {"smiles": "O=C(O)C1C2CCC(O2)C1C(=O)Nc1ccc(OC(F)F)cc1", "note": "(stereo not given)", "activity change, negative = inhibition": "inactive: 2.14%"},
      {"smiles": "O=C1N/C(=C\\c2ccc(O)cc2)C(=O)c2ccccc21", "Potency": "inconclusive: 79.4 µM [inhibitor, single point]"},
      {"smiles": "Cc1ccnc(Nc2nc(-c3ccc(O)c(O)c3)cs2)c1", "Potency": "active: 39.8 µM"},
      {"smiles": "CN(CC(=O)Nc1cc([N+](=O)[O-])ccc1Cl)Cc1ccc(Br)cc1", "Potency": "inconclusive: 28.2 µM [inhibitor, full curve]"},
      {"smiles": "COc1ccc(NC(=O)c2cc([N+](=O)[O-])ccc2NC(=O)CNC2CCCCC2C)c(OC)c1", "note": "(stereo not given)", "Potency": "inconclusive: 70.8 µM [inhibitor, single point]"},
      {"smiles": "CCOc1ccc2nc(/N=C/c3c(C)[nH]n(-c4ccc(C)cc4)c3=O)sc2c1", "Potency": "inconclusive: 79.4 µM [inhibitor, single point]"},
      {"smiles": "CCOC(=O)Cc1c(C(=O)OCC)nnc2c(-c3ccccc3)c(C)nn12", "Potency": "inconclusive: 31.6 µM [inhibitor, partial curve]"},
      {"smiles": "COc1cccc(N2CCN(c3ncnc4c3c(-c3ccccc3)cn4-c3cccc(C(F)(F)F)c3)CC2)c1", "Potency": "inconclusive: 3.98 µM [inhibitor, full curve]"},
      {"smiles": "CCC(C)NC(=O)c1c(C)oc2nc(C)nc(N3CCOCC3)c12", "note": "(stereo not given)", "activity change, negative = inhibition": "inactive: 10.1% [at 57.1 µM]"},
      {"smiles": "CC(C)(C)Sc1ccc(N)nc1", "Potency": "inconclusive: 100 µM [inhibitor, single point]"},
      {"smiles": "COc1ccc(/C=C2\\SC(=S)N(NC(=O)c3ccncc3)C2=O)cc1OC", "Potency": "inconclusive: 89.1 µM [inhibitor, single point]"},
      {"smiles": "C#CCOCCOCCOCCNc1nc(N2CCN(C(=O)CCCCCCCCCCNC(=O)[C@H](CCCCN)n3cc(CCO)nn3)CC2)nc(N2CCN(C(=O)CCCCCCCCCCNC(=O)[C@H](CCCN=C(N)N)n3cc(C[C@@H](C)CC)nn3)CC2)n1", "Potency": "active: 50.1 µM"}
    ]}
  ]
}
